# The supplement of paper PMC3334620
# In all, about 33,000 sequences were measured (“E-score (-0.5 to 0.5)”: median about -0.01, highest 2% from about 0.26 on). This is one part of the list.
# Target: Ste12 (UniProt P13574)
# Experiment: PBM E-score (8-mer binding enrichment) (E-score (-0.5 to 0.5)); higher = stronger / more preferred TF binding; most listed sequences are background and not binding sites
# Conditions: protein concentration: 200 nM; construct: GST-DNA-binding domain
# Outline: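 PURExpress in vitro transcription/translation supplied GST-tagged yeast transcription factors, either full-length or DNA-binding domain. Applied at about 100-200 nM to universal all-10-mer Agilent arrays double-stranded by primer extension, the bound protein was detected with fluorescent anti-GST. E-scores, modified Wilcoxon-Mann-Whitney statistics, were given by the Universal PBM Analysis Suite to ungapped eight-base words pooled with their reverse complements after masliner normalisation.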
row,Sequence,PBM E-score
1,GGGTACAA,0.0188
2,CGGCAAAG,0.116
3,ACGTTTCA,0.48
4,CGACCGGC,0.0316
5,AGCATTGC,-0.118
6,GCGAACTA,0.105
7,ACCATCAC,-0.0898
8,AACTCTGT,0.0572
9,CGCCTACC,-0.204
10,AAAATCCA,0.153
11,GACTACCC,-0.0874
12,AATAGGCG,0.12
13,AACGGAGG,-0.218
14,AGACGTGC,-0.0221
15,GCGTAAGA,0.0466
16,AGCCTGTA,-0.109
17,AATCTGTA,0.061
18,ATCACATC,0.158
19,ACTTGATC,0.0858
20,GGACGTTA,-0.0711
21,AGCATAAG,0.0235
22,GTCCTACA,-0.0419
23,GCGTTCCC,-0.0494
24,AGACTGCT,0.0365
25,AGATCTGC,-0.0463

row,Sequence,PBM E-score
1,AACTAGCA,0.0602
2,GTTGGTCA,0.121
3,ACATCCTG,0.102
4,AGTAATCG,0.0283
5,AAACATCT,0.177
6,GGTATCCA,0.0467
7,ATATCCCG,-0.0149
8,AGGCGCAA,0.0718
9,TTCCGCAA,0.116
10,ATCCGAAG,0.0493
11,CGCATTTA,0.119
12,CCCAGAGG,-0.244
13,ATCCCACC,0.158
14,CCCGGACG,-0.105
15,ATCACCAA,0.0616
16,AGACCGCC,-0.0285
17,AATTTACT,0.217
18,TAGGGTCA,-0.0331
19,ACATCGAC,-0.0873
20,AGCAGTGC,-0.289
21,TTGCGCAA,-0.151
22,TAGGCGGA,-0.0248
23,CGGTGGGC,-0.176
24,CAACCTTG,0.0802
25,AGAACGTG,0.0165

row,Sequence,PBM E-score
1,AATAACAT,0.12
2,CTTATTGC,-0.0793
3,AAGTATGT,0.0849
4,CAGGCGCA,-0.132
5,AACTTCGA,0.179
6,CTCAGATA,0.0316
7,CTTCCGCC,-0.0703
8,ATCATTGA,0.0805
9,ATGAGAGC,-0.126
10,GTATGACA,0.144
11,GAACTTAA,0.115
12,AGGCACGC,-0.189
13,TTAACGAA,0.262
14,GTTTGCTA,0.0839
15,CCACTATC,-0.0847
16,GTAACATA,0.218
17,GTACCCAC,-0.0979
18,CTTGTAGA,-0.243
19,CGAACTAG,0.053
20,CAGTTTCA,0.374
21,CGTCTATC,0.0468
22,GAACCCTC,-0.14
23,GGTTCCGA,0.111
24,CATAGTAC,-0.0117
25,CTGTGCAA,-0.101

row,Sequence,PBM E-score
1,CCGTGACC,-0.19
2,CAGTACTC,-0.16
3,CACACATA,0.0505
4,AACGGTGT,0.0499
5,GCAGTGAA,0.25
6,ATTCCTTA,0.0366
7,ACCATTAA,0.221
8,AACCCAGA,-0.108
9,AACTAATG,0.0859
10,CCTGAGCG,-0.152
11,TACGTCAA,0.0103
12,TATTCTCA,0.122
13,AAATACGG,0.0587
14,CAATGCCG,-0.0769
15,GATTAGCC,-0.057
16,ATACCAAT,-0.146
17,AATTTGCC,0.0665
18,CTTCGACC,-0.107
19,AACTTATA,0.0627
20,ATCAGCGG,0.0345
21,CAGCACGG,-0.0896
22,ACGAGTAG,0.0683
23,CACATGAA,0.108
24,ATAAGAAC,0.171
25,TCTTCGAA,0.023

row,Sequence,PBM E-score
1,CTAAGAAC,0.189
2,CCACCGTA,-0.0231
3,GAAGGCTC,-0.209
4,CTGACGCA,-0.2
5,AGGCTCTC,-0.13
6,CCCTAGTC,-0.238
7,CTTGGTTC,0.181
8,ACGTCGTC,-0.064
9,CACAATAC,0.0976
10,AGCCAAAA,0.0698
11,AGTTCGTA,-0.0725
12,TGCGTCCA,-0.147
13,ACCTTGGC,-0.0364
14,CAAACATG,0.179
15,ACATATCA,0.257
16,CTGGAAAG,-0.141
17,CGAGTGGC,-0.0423
18,CTATGGAA,0.107
19,CTTCCGCA,-0.00457
20,CGTTGTGA,-0.0207
21,GTAGGAAC,0.066
22,GAATACCA,0.05
23,AAAGGGGC,-0.05
24,AAGCCGGG,-0.0595
25,TCCCTACA,0.0325

row,Sequence,PBM E-score
1,CTCAGGGC,-0.157
2,CTGCCTCC,-0.0717
3,TTAACCAA,0.154
4,GAAACGCA,0.323
5,CCTCTCAC,-0.161
6,CACAGAAA,0.0319
7,CCCAAGTC,-0.0209
8,GACTATGA,-0.118
9,CGGCATAA,-0.0029
10,ACCCTAAG,0.0578
11,CATTCATA,0.296
12,AACGGCAA,0.109
13,GCGACCAA,0.0799
14,CGCGTAAA,-0.0365
15,TCTCTTCA,0.0588
16,AAAGCCTA,-0.129
17,CTCCCCAG,0.032
18,ATGTGTTA,0.159
19,TAGGTGAA,-0.0106
20,CTAGGGCA,-0.159
21,AGTCTCGC,-0.0327
22,ATGCATCC,-0.0591
23,GAATCCTA,-0.0649
24,CTTGGTGC,-0.0549
25,CCTGCACA,-0.182

row,Sequence,PBM E-score
1,ATGCATAA,0.00819
2,CCCGGTAC,-0.162
3,CTCAATAA,0.113
4,AGTCCAAT,-0.0915
5,TCAACACA,0.161
6,GCTATCGA,-0.031
7,AAAGGGTC,-0.0177
8,AGGGCACG,-0.103
9,GCGCGGCA,0.0978
10,TACCGTAA,0.0868
11,GTAGTCCA,-0.291
12,CTCCTCAC,-0.16
13,GATGAACA,0.00898
14,CTTGTTTC,0.375
15,ATCTTCAT,0.121
16,ACATGGAT,0.0543
17,AACTGCGT,-0.192
18,CATCTTTA,0.0614
19,AAAATTAT,0.337
20,ATAGTCCC,-0.186
21,ATCCGGAA,0.0122
22,AACGACAC,-0.0753
